From the supplement of paper PMC8728848
The other results are listed elsewhere or left out.

What was measured:
Test in all cases: glycan array binding signal (z-score within array); higher = stronger binding
Conditions in all cases: glycan notation: IUPAC condensed, linker removed
Fuc(a1-2)Gal = target: Fuc(a1-2)Gal
Summary of the method: (§1)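 Glycan array data were curated from 3228 arrays in the Consortium for Functional Glycomics database and kept only where the protein sequence was available. Glycan names were converted to IUPAC-condensed notation, and columns mapping to the same glycan were averaged. The binding signal is a within-array Z-score, averaged across arrays of the same protein sequence at different concentrations or buffers and across linkers. Negative Z-scores can be read as non-binding.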

Fuc(a1-2)Gal(b1-3)GalNAc = target: Fuc(a1-2)Gal(b1-3)GalNAc
Summary of the method: as §1

[1] = target: Fuc(a1-2)Gal(b1-3)GalNAc(b1-3)Gal
Summary of the method: as §1

[2] = target: Fuc(a1-2)Gal(b1-3)GalNAc(b1-3)Gal(a1-4)Gal(b1-4)Glc
Summary of the method: as §1

[3] = target: Fuc(a1-2)Gal(b1-3)GalNAc(b1-4)[Neu5Ac(a2-3)]Gal(b1-4)Glc
Summary of the method: as §1

Fuc(a1-2)Gal(b1-3)GlcNAc = target: Fuc(a1-2)Gal(b1-3)GlcNAc
Summary of the method: as §1

[4] = target: Fuc(a1-2)Gal(b1-3)[Fuc(a1-4)]GlcNAc
Summary of the method: as §1

Fuc(a1-2)Gal(b1-4)Glc = target: Fuc(a1-2)Gal(b1-4)Glc
Summary of the method: as §1

Fuc(a1-2)Gal(b1-4)GlcNAc = target: Fuc(a1-2)Gal(b1-4)GlcNAc
Summary of the method: as §1

[5] = target: Fuc(a1-2)Gal(b1-4)GlcNAc(b1-3)Gal(b1-4)GlcNAc
Summary of the method: as §1

[6] = target: Fuc(a1-2)Gal(b1-4)GlcNAc(b1-3)Gal(b1-4)GlcNAc(b1-3)Gal(b1-4)GlcNAc
Summary of the method: as §1

[7] = target: Fuc(a1-2)Gal(b1-4)[Fuc(a1-3)]GlcNAc
Summary of the method: as §1

Fuc(a1-2)GlcNAc = target: Fuc(a1-2)GlcNAc
Summary of the method: as §1

Fuc(a1-2)[Gal(a1-3)]Gal = target: Fuc(a1-2)[Gal(a1-3)]Gal
Summary of the method: as §1

[8] = target: Fuc(a1-2)[Gal(a1-3)]Gal(b1-4)GlcNAc
Summary of the method: as §1

[9] = target: Fuc(a1-2)[Gal(a1-4)]Gal(b1-4)GlcNAc
Summary of the method: as §1

[10] = target: Fuc(a1-2)[GalNAc(a1-3)]Gal
Summary of the method: as §1

[11] = target: Fuc(a1-2)[GalNAc(a1-3)]Gal(b1-4)GlcNAc
Summary of the method: as §1

[12] = target: Fuc(a1-2)[GalNAc(a1-4)]Gal(b1-4)GlcNAc
Summary of the method: as §1

[13] = target: Fuc(a1-2)[GalNAc(b1-3)]Gal
Summary of the method: as §1

Fuc(a1-3)GlcNAc = target: Fuc(a1-3)GlcNAc
Summary of the method: as §1

[14] = target: Fuc(a1-3)[Gal(b1-4)]GlcNAc
Summary of the method: as §1

[15] = target: Fuc(a1-3)[Gal(b1-4)]GlcNAc(b1-3)Gal(b1-4)[Fuc(a1-3)]GlcNAc
Summary of the method: as §1

[16] = target: Fuc(a1-3)[Gal(b1-4)]GlcNAc(b1-3)Gal(b1-4)[Fuc(a1-3)]GlcNAc(b1-3)Gal(b1-4)[Fuc(a1-3)]GlcNAc
Summary of the method: as §1

[17] = target: Fuc(a1-3)[Gal3S(b1-4)]GlcNAc
Summary of the method: as §1

Fuc(b1-3)GlcNAc = target: Fuc(b1-3)GlcNAc
Summary of the method: as §1

Gal(a1-2)Gal = target: Gal(a1-2)Gal
Summary of the method: as §1

Gal(a1-3)Gal = target: Gal(a1-3)Gal
Summary of the method: as §1

Gal(a1-3)Gal(b1-4)Glc = target: Gal(a1-3)Gal(b1-4)Glc
Summary of the method: as §1

Gal(a1-3)Gal(b1-4)GlcNAc = target: Gal(a1-3)Gal(b1-4)GlcNAc
Summary of the method: as §1

[18] = target: Gal(a1-3)Gal(b1-4)[Fuc(a1-3)]GlcNAc
Summary of the method: as §1

Gal(a1-3)GalNAc = target: Gal(a1-3)GalNAc
Summary of the method: as §1

[19] = target: Gal(a1-3)[Gal(a1-4)]Gal(b1-4)GlcNAc
Summary of the method: as §1

Gal(a1-4)Gal(b1-4)Glc = target: Gal(a1-4)Gal(b1-4)Glc
Summary of the method: as §1

Gal(a1-4)Gal(b1-4)GlcNAc = target: Gal(a1-4)Gal(b1-4)GlcNAc
Summary of the method: as §1

Gal(a1-4)GlcNAc = target: Gal(a1-4)GlcNAc
Summary of the method: as §1

Gal(a1-6)Glc = target: Gal(a1-6)Glc
Summary of the method: as §1

Gal(b1-2)Gal = target: Gal(b1-2)Gal
Summary of the method: as §1

Gal(b1-3)Gal = target: Gal(b1-3)Gal
Summary of the method: as §1

Gal(b1-3)GalNAc = target: Gal(b1-3)GalNAc
Summary of the method: as §1

[20] = target: Gal(b1-3)GalNAc(b1-4)Gal(b1-4)Glc
Summary of the method: as §1

[21] = target: Gal(b1-3)GalNAc(b1-4)[Neu5Ac(a2-3)]Gal(b1-4)Glc
Summary of the method: as §1

Gal(b1-3)GlcNAc = target: Gal(b1-3)GlcNAc
Summary of the method: as §1

[22] = target: Gal(b1-3)GlcNAc(b1-3)Gal(b1-4)Glc
Summary of the method: as §1

[23] = target: Gal(b1-3)[Fuc(a1-4)]GlcNAc
Summary of the method: as §1

[24] = target: Gal(b1-3)[GlcNAc(b1-6)]GalNAc
Summary of the method: as §1

[25] = target: Gal(b1-3)[Neu5Ac(a2-6)]GalNAc
Summary of the method: as §1

[26] = target: Gal(b1-3)[Neu5Ac(a2-6)]GlcNAc(b1-4)Gal(b1-4)Glc
Summary of the method: as §1

[27] = target: Gal(b1-3)[Neu5Ac(b2-6)]GalNAc
Summary of the method: as §1

[28] = target: Gal(b1-4)GalNAc(a1-3)[Fuc(a1-2)]Gal(b1-4)GlcNAc
Summary of the method: as §1

Gal(b1-4)Glc = target: Gal(b1-4)Glc
Summary of the method: as §1

Gal(b1-4)Glc6S = target: Gal(b1-4)Glc6S
Summary of the method: as §1

Gal(b1-4)GlcNAc = target: Gal(b1-4)GlcNAc
Summary of the method: as §1

[29] = target: Gal(b1-4)GlcNAc(b1-3)Gal(b1-4)Glc
Summary of the method: as §1

[30] = target: Gal(b1-4)GlcNAc(b1-3)Gal(b1-4)GlcNAc
Summary of the method: as §1

[31] = target: Gal(b1-4)GlcNAc(b1-3)Gal(b1-4)GlcNAc(b1-3)Gal(b1-4)GlcNAc
Summary of the method: as §1

[32] = target: Gal(b1-4)GlcNAc(b1-3)Gal(b1-4)[Fuc(a1-3)]GlcNAc(b1-3)Gal(b1-4)[Fuc(a1-3)]GlcNAc
Summary of the method: as §1

[33] = target: Gal(b1-4)GlcNAc(b1-3)GalNAc
Summary of the method: as §1

[34] = target: Gal(b1-4)GlcNAc(b1-3)[Gal(b1-4)GlcNAc(b1-6)]GalNAc
Summary of the method: as §1

[35] = target: Gal(b1-4)GlcNAc(b1-6)GalNAc
Summary of the method: as §1

B1: RegIIIgamma (Mus musculus), O09049 (protein)
chain: MLPRITITIMSWMLLSCLMLLSQVQGEVAKKDAPSSRSSCPKGSRAYGSYCYALFSVSKNWYDADMACQKRPSGHLVSVLSGAEASFLSSMIKSSGNSGQYVWIGLHDPTLGYEPNRGGWEWSNADVMNYINWETNPSSSSGNHCGTLSRASGFLKWRENYCNLELPYVCKFKA
- glycan array binding signal (z-score) (Fuc(a1-2)Gal): -0.255
- glycan array binding signal (z-score) (Fuc(a1-2)Gal(b1-3)GalNAc): -0.245
- glycan array binding signal (z-score) [1]: 0.23
- glycan array binding signal (z-score) [2]: -0.221
- glycan array binding signal (z-score) [3]: -0.104
- glycan array binding signal (z-score) (Fuc(a1-2)Gal(b1-3)GlcNAc): -0.26
- glycan array binding signal (z-score) [4]: -0.211
- glycan array binding signal (z-score) (Fuc(a1-2)Gal(b1-4)Glc): -0.27
- glycan array binding signal (z-score) (Fuc(a1-2)Gal(b1-4)GlcNAc): -0.26
- glycan array binding signal (z-score) [5]: -0.226
- glycan array binding signal (z-score) [6]: 0.632
- glycan array binding signal (z-score) [7]: -0.246
- glycan array binding signal (z-score) (Fuc(a1-2)GlcNAc): -0.261
- glycan array binding signal (z-score) (Fuc(a1-2)[Gal(a1-3)]Gal): -0.293
- glycan array binding signal (z-score) [8]: -0.269
- glycan array binding signal (z-score) [9]: -0.235
- glycan array binding signal (z-score) [10]: -0.258
- glycan array binding signal (z-score) [11]: -0.256
- glycan array binding signal (z-score) [12]: 0.006
- glycan array binding signal (z-score) [13]: -0.266
- glycan array binding signal (z-score) (Fuc(a1-3)GlcNAc): -0.264
- glycan array binding signal (z-score) [14]: 0.137
- glycan array binding signal (z-score) [15]: 0.002
- glycan array binding signal (z-score) [16]: -0.232
- glycan array binding signal (z-score) [17]: -0.124
- glycan array binding signal (z-score) (Fuc(b1-3)GlcNAc): 0.104
- glycan array binding signal (z-score) (Gal(a1-2)Gal): -0.292
- glycan array binding signal (z-score) (Gal(a1-3)Gal): -0.258
- glycan array binding signal (z-score) (Gal(a1-3)Gal(b1-4)Glc): -0.236
- glycan array binding signal (z-score) (Gal(a1-3)Gal(b1-4)GlcNAc): -0.232
- glycan array binding signal (z-score) [18]: -0.233
- glycan array binding signal (z-score) (Gal(a1-3)GalNAc): -0.258
- glycan array binding signal (z-score) [19]: 0.491
- glycan array binding signal (z-score) (Gal(a1-4)Gal(b1-4)Glc): -0.248
- glycan array binding signal (z-score) (Gal(a1-4)Gal(b1-4)GlcNAc): -0.259
- glycan array binding signal (z-score) (Gal(a1-4)GlcNAc): -0.256
- glycan array binding signal (z-score) (Gal(a1-6)Glc): -0.148
- glycan array binding signal (z-score) (Gal(b1-2)Gal): -0.267
- glycan array binding signal (z-score) (Gal(b1-3)Gal): -0.237
- glycan array binding signal (z-score) (Gal(b1-3)GalNAc): -0.26
- glycan array binding signal (z-score) [20]: -0.258
- glycan array binding signal (z-score) [21]: -0.196
- glycan array binding signal (z-score) (Gal(b1-3)GlcNAc): -0.265
- glycan array binding signal (z-score) [22]: -0.266
- glycan array binding signal (z-score) [23]: -0.282
- glycan array binding signal (z-score) [24]: -0.278
- glycan array binding signal (z-score) [25]: -0.252
- glycan array binding signal (z-score) [26]: -0.134
- glycan array binding signal (z-score) [27]: -0.165
- glycan array binding signal (z-score) [28]: -0.228
- glycan array binding signal (z-score) (Gal(b1-4)Glc): -0.171
- glycan array binding signal (z-score) (Gal(b1-4)Glc6S): -0.126
- glycan array binding signal (z-score) (Gal(b1-4)GlcNAc): -0.268
- glycan array binding signal (z-score) [29]: -0.239
- glycan array binding signal (z-score) [30]: -0.279
- glycan array binding signal (z-score) [31]: -0.17
- glycan array binding signal (z-score) [32]: -0.183
- glycan array binding signal (z-score) [33]: -0.256
- glycan array binding signal (z-score) [34]: -0.284
- glycan array binding signal (z-score) [35]: -0.276
